Test results taken from the RNAGym collection of RNA variant scans (doi:10.1073/pnas.2313332121).
This sample is rich in variants without activity.

B1: TPR 5TU (parent)
chain: GGAUCUUCUCGAUCUAACAAAAAAGACAAAUCUGCCACAAAGCUUGAGAGCAUCUUCGGAUGCAGAGGCGGCAGCCUUCGGUGGCGCGAUAGCGCCAACGUUCUCAACUAUGACACGCAAAACGCGUGCUCCGUUGAAUGGAGUUUAUCAUG

Variants of: B1
Assay: polymerase ribozyme fitness, log enrichment relative to wild type (log ratio); higher = more active; in vitro selection for triplet polymerase activity
In short: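 In triplicate, a single round of in vitro selection was run on each mutant library, PCR-built and transcribed, covering one subunit of a heterodimeric triplet polymerase ribozyme. Frozen incubation at −7 °C followed annealing with a biotinylated primer, partner subunit and triplets, and extended constructs were then gel-excised, streptavidin-captured and taken through RT-PCR. Fitness is the logarithm of genotype enrichment over wild-type enrichment, from inverse-variance-weighted replicate averages of Illumina-sequenced inputs and outputs. […] only genotypes with ≥10 input reads and ≥1 read per output were kept.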

Polymerase ribozyme fitness (log ratio), -3.93:
C75G G84A

Polymerase ribozyme fitness (log ratio), -0.161:
A73G C125G

Polymerase ribozyme fitness (log ratio), -0.661:
A73U G126U

Polymerase ribozyme fitness (log ratio), -3.94:
G71U A89U C95A

Polymerase ribozyme fitness (log ratio), 0.261:
C72U U145A

Polymerase ribozyme fitness (log ratio), -3.03:
A73U G80A C93U U146G

Polymerase ribozyme fitness (log ratio), -2.51:
G71C C116U

Polymerase ribozyme fitness (log ratio), 0.224:
A73U C87U G92A

Polymerase ribozyme fitness (log ratio), -0.532:
C72U A89U A122U U146A

Polymerase ribozyme fitness (log ratio), -3.81:
C75A C87U

Polymerase ribozyme fitness (log ratio), -1.16:
A73G C85A G124A

Polymerase ribozyme fitness (log ratio), ≤ -4.2:
G74U A89U G128C C131U
G71U G94A A119G U139C A147C
G74C U77G C99A C103A U104C C132A U135G U144A
A73C A107G
A73C G92C C108U
C75A A89U C93U C116U U151G
G74A U77G
C75G A115G
G71A G136U
G71U G133A C149U
A73G C96U C114G
C75G G83A A98U U139A U145C
C75A A97U G117U U130A C131A A138C
C72G U90C G92A C105G
A73C G84A U104A A107G U134G
G74C G112A A147G
A73G C87U C125G G140U
C72G C114G G124U
C75G U78G A115G
C75A C93G C125U
C75A C85A A137U G143U
A73U C85G C125A U135G A150U
C72G U101G
G70C C85A G117C C132U
G71C C95U U135A
G70C A142U U144A U148A
G70U C96G C103G
G71C A73C C108U U146C C149G
C75G G88C A91U U135A G136C
C72U G80A C93U C96G
C75G C85U U101C
C75G C85U C87A A113G
A73C G88U C95G U104A C125G U145G
C75A U90C C95U A107G U127G G141C
G71A U144A A147C
C72A C93G C95G
A73G C87G C96A C118U
A73G G94C A106U C108U G143U
C72U G81A C95U
G74U A121G C123U C131U
G70A U101A
C75G A97U G140A
G70U C114G A119C
C75A C96G
G70C G84U A107U
A73G C75U C87G C125U G141A
G70C G80A A91U U104C A120U
C72A A73U C85G A138C U148C
A73U C75A G92A
G71A G74A A91C C108A G136C
G74C G83C C99G A107U C116A A120G U134C U145A
C75A C85U G88U G94A
G71C C118G G141C
A73G U77A
G70C U102G A115C A142C
C75G G84C
C72U A89C U102G U130G
G71A A91C
G74A G80A C85A G92A C125A G136C A138G
C75G G80A C96G G112C
C72U C87A C93U G112C G126U C149A
G71A C96U G143A
A73C G86C U104C
G74U U82A
C75A A137G U139A G141C
C75A C108U U148A
G70A U90A C125A U135C
G74A A91C C99U G117U G136U A147U A150C
C75A G92U A98G U101A G136A A138C G141A
G71A C85G A150C
C72G G86U
C72G U77A G83A C103A U139G
C75G A97U G126U U130A
G70C G92A A98C
C75G U82A C85A
A73U C75A G86C A113G C125A
C72U G92A C103G
C72G U82G A89U A113U
A73U G84A A98C G126A G141C
A73U A91C C93U
A73U G74U A89C C93G C95G
G74U C85A A113G G133A G141A
G71C C79U G83A C95A C99A
A73U U101C A138U
C72G G83U C99G A107C G136C U146A
G74C C131G G136U
C75A C87A
G70C C87G C96G A107G U146G
C72U G88U C132G U135G U148G
A73U G92U C93U C108U C125U
G71C C87A C96A C99U
G70U G92C U151C
C75G A98U C99U C103G C123A
G74C U90C C95A U135C C149G
G70U G83C C95G A97U C125G
C72U U82A C85A A107C C123U A147C U148C
C72A G84U U101A G133A
G71A C85G G92U G143A
C75G G84A G124U
C75G C123A G141C
G70C A89U C96U U102G A107U
C72A G83A A150G
C72G C93A C108U C114G
C72U G84U A98C G140U
G70U G92U A98G A147C
G71A A107U G133C
A73U U101G G117C G152U
G71U U90A C125U
A73U U77C G81A
G71U C118A C123G C132U
G71A U77A G81C A89C U101G C114U
G70U A97G G143A U145G A147U
G74C C93A G136U U151A
G74C C116G A150U
A73G G92C G136C U145G
A73C G81C A110G A121G
C75G G88A A120U
G71C G92C
C75G U78G
C72U G140A
C72A C85G C87G C99U G141U
C75G C79G G141U
C75A G92C
C75G U77G G80C A97U G124A
C72U C87A A98U A138C
C72A G81C G86U G141C
G71A U135C
A73G C93U C123G U151G
C75G C76A C95A G128A
A73G G86U A91C
A73G C76U C87A A91U C93A G117C A120U G140A
C75G U78G G83U A97U
G74U G88A C103U
G71C C85A C99G C116U U127C
G74C C118A
G71A C87G A115G C118U G133U
C72U C87G
A73G C85U U102G G124A
G71U G83C U146G

Polymerase ribozyme fitness (log ratio), -0.00972:
C72U

Polymerase ribozyme fitness (log ratio), -1.55:
A73G C87U

Polymerase ribozyme fitness (log ratio), -4.17:
C75G C93A A113U A142G

Polymerase ribozyme fitness (log ratio), -3.18:
G71A C96A

Polymerase ribozyme fitness (log ratio), -3.87:
C75G C118U

Polymerase ribozyme fitness (log ratio), -3.79:
C72G
A73U C105G

Polymerase ribozyme fitness (log ratio), -3.95:
G74U G88A A119U C125U

Polymerase ribozyme fitness (log ratio), -1.3:
C72U G124A U146G

Polymerase ribozyme fitness (log ratio), -1.86:
G70U G136A

Polymerase ribozyme fitness (log ratio), -4.11:
G71A C95U C132U

Polymerase ribozyme fitness (log ratio), -0.214:
A73G G126U

Polymerase ribozyme fitness (log ratio), -3.99:
G71U G86U C125A A138G

Polymerase ribozyme fitness (log ratio), -4.18:
A73G G86A A98U G117U C149U

Polymerase ribozyme fitness (log ratio), -1.72:
C72U A147C

Polymerase ribozyme fitness (log ratio), -1.91:
C72U C76A

Polymerase ribozyme fitness (log ratio), -3.31:
G71A C96G
